This passage reports binding signal results from publication PMC12136788.

Residue numbers refer to the chain shown, from its start. Some of the results follow.

T1: UNK ZnF1-3 (human, UniProt Q9C0B0 31-174)
T1 sequence: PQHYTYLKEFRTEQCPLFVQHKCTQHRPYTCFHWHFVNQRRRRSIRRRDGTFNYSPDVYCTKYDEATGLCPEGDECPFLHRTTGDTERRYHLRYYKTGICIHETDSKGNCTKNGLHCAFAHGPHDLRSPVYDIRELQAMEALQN

B1: chr7:56127271:56127272:+_ENSG00000146731_ENST00000540286|hu_mus|FALSE|FALSE (ssRNA)
RNA: GGGAGUUCUACAGUCCGACGAUCAUACUCAUAGACAAGCUCUGCAUGUCCCAAACAGUCAGGAUUCAGGUCAUCAAAGGAAUUCAGAGCUAUCCCACCACAAGCAAGUGUCAGCCUCUCCAUGUUUCUCCUCUUGGCUCUGCGCAACAGAGGAUUGAGCAUCA
B2: chr7:141450121:141450122:+_ENSG00000106028_ENST00000265304|hu_mus|hu_hu_hu_mus_True|1_1 (ssRNA)
RNA: GGGAGUUCUACAGUCCGACGAUCUCAUCCGUUCUAUGCCUUUUCUUUUGUCUGGUCACUCAGAAAUAUAAUGUUAUCAGCUAUGAUUGUUGUUGCUUGCCGCCUCACAUUGUUUUUAUCCAUGUACUCGCCAUAGUCUAUUUUCAACAGAGGAUUGAGCAUCA
B3: chr12:39756943:39756944:-_ENSG00000139116_ENST00000544797|hu_mus|hu_hu_hu_mus_False|1_108 (ssRNA)
RNA: GGGAGUUCUACAGUCCGACGAUCGGUUUGGCUAUUACCCCCAAGGGAAUCCUGCAAGAGUCUUGUCAGCUUAGAGUCUCUGUAAGGGACAUGGGUGGCUCUCUUGCUCUUGUCCCCCAAGGCGCUGAUUACAUUCCCAAGUGCCAACAGAGGAUUGAGCAUCA
B4: chrX:140365796:140365797:-_ENSMUSG00000031285_ENSMUST00000033642|mus_mus|mus_mus_mus_hu_False|58_98 (ssRNA)
RNA: GGGAGUUCUACAGUCCGACGAUCCUUCUCAUUACUCAAUGCCUGCAAGGUUCUGGUUCGGUAGAAGCUACAGUGGGCACUAUGAGUGGGGCUAGGCAACCCAUUCAUCCGGGAGCCUCGCAUGUUCCUGGAUGUCUUAUCUCUCAACAGAGGAUUGAGCAUCA
B5: chr1:117910967:117910968:+_ENSG00000198162_ENST00000356554|hu_mus|FALSE|FALSE (ssRNA)
RNA: GGGAGUUCUACAGUCCGACGAUCUUUUGAAGAGUCUGGAAGGAAGAAGAAUGCCCCAAAACACAGGGUGAUGAAGGCACUAAGGAUGAGGAGAAGGAUAAACUUCUCGGAGAGUCUCAAGGUAGCCCUGUGAUGUGGGAAGGACAACAGAGGAUUGAGCAUCA
B6: chr3:41281661:41281662:+_ENSG00000168036_ENST00000349496|hu_hu|FALSE|FALSE (ssRNA)
RNA: GGGAGUUCUACAGUCCGACGAUCCCUGCUUAUUUUAAGCAUAUUAAAAAGGAAACUAAUUGGACCAUUUUCUAUUUGUCUAUUUUAUACAAAAAGGCUACACAAUUGUUACACUUUAUUCAGAUUACAAUUAAUUAGAGUGAUCAACAGAGGAUUGAGCAUCA
B7: chr3:95657547:95657548:-_ENSMUSG00000015748_ENSMUST00000015892|mus_hu|FALSE|FALSE (ssRNA)
RNA: GGGAGUUCUACAGUCCGACGAUCCUUUGACAGUGCCAUUUUUCAGGAAAAAGAGAACAAUAGCUCAAACAGGACUCAAUACUACACCUCACAAACUUCAGCCCCUGAGACGGAGCCCGAACGUUACACCGGAACCGGAAACCUCAACAGAGGAUUGAGCAUCA
B8: chr7:141450121:141450122:+_ENSG00000106028_ENST00000265304|hu_mus|hu_hu_hu_mus_True|8_108 (ssRNA)
RNA: B2 RNA with G30U, U36C, G129A, U138C, U140C
B9: chr3:133126781:133126782:-_ENSMUSG00000040943_ENSMUST00000098603|mus_mus|FALSE|FALSE (ssRNA)
RNA: GGGAGUUCUACAGUCCGACGAUCCAGUAUUUAUAACCACCCUCAGAUUGUAUAAACAAAGCCAAAAUCUCAGGAAGUAAGCUACAUUAAAAAAUAAAGCAUAGAAAAAUGCACACAGAAGUUCAUUAUCUUAGUGUCAAACUGCAACAGAGGAUUGAGCAUCA
B10: chr16:94915998:94915999:+_ENSMUSG00000022897_ENSMUST00000023614|mus_mus|motif|central (ssRNA)
RNA: GGGAGUUCUACAGUCCGACGAUCCGCCCUCCUGACAGUGCUGUGCUCAAGGUGAGGCCUCUGUACGGAAAUGCUCAUCAACGGCCAAGCUCAAAACAAUCCACAGGCUUGACAUUUAAUUACAAAAUCAAUAUGGGUUUCCUGCAACAGAGGAUUGAGCAUCA
B11: 14520466_14521307_194_5pUTR_ENSG00000129083_ENST00000439561|human|control|control (ssRNA)
RNA: GGGAGUUCUACAGUCCGACGAUCGCCGUCAUGGUUUCUGGUUAUAUUAUAACCAAUCCUUGACACAAGAUUUAAGGAUGCCAGAAAAUCACGCCUCUGGGACUGGGGGCUUGUGGCCCACUACCAGGCUCCGAGGGGCAGUGGCAACAGAGGAUUGAGCAUCA
B12: chr9:91931296:91931297:+_ENSG00000123975_ENST00000314355|hu_hu|hu_hu_hu_mus_True|78_78 (ssRNA)
RNA: GGGAGUUCUACAGUCCGACGAUCAGAUUAGAUGAUCCCAGCUGCACUUCAUUUUUGUUGAUCUUUUGGAAGAGGUCGUCUAAAGAGAAGAAUAUGCGGUUCUGGCUCAUGAAUCAUGUAAUGAACCCAUCCUAGACUCUGUUGCAACAGAGGAUUGAGCAUCA
B13: chr11:77336104:77336105:-_ENSG00000074201_ENST00000525064|hu_mus|hu_hu_hu_mus_False|58_88 (ssRNA)
RNA: GGGAGUUCUACAGUCCGACGAUCCUCACACAUUGCUGUGAACAUCGCCUCCAACGCUGACUUAUCACUGGGCACAAAUCUAAAUUCAGAAAUGGGUUCAACAUCAUCAUUGUCUUCCUCAUCUUCAUCAGAGAGAGGUUCUUUCAACAGAGGAUUGAGCAUCA
B14: chr2:47387770:47387771:-_ENSG00000143933_ENST00000272298|hu_mus|motif|central (ssRNA)
RNA: GGGAGUUCUACAGUCCGACGAUCAAGGUUUAAGGACAAUGACAGUAAGAUAAGGGAAGAAAACAUGGAGGAAUGAAGUCCGGAUUACUAUACAUGCAUAUUUUUUGACAGUAGGGGGGGGGAACCUUUUACAGAUAAGUUACACAACAGAGGAUUGAGCAUCA

This experiment concerns the target T1, UNK ZnF1-3. As to the kind of experiment: nsRBNS (natural sequence RNA bind-n-seq); RBNS binding buffer (assumed for nsRBNS): 25 mM Tris pH 7.5, 150 mM KCl, 3 mM MgCl2, 0.01% Triton X-100, 500 ug/ml BSA, 20 U/ml SUPERase-In, 4 C; UNK is unkempt and MSI1 is Musashi-1; names of the RNAs are library labels; protein concentration not given here; high values mean tight binding.
B1 returned a binding signal of 1.77 enrichment R.

For the molecule B2, the binding signal was found to be 0.364 enrichment R.

As to B3, the binding signal worked out at 0.672 enrichment R.

Take B4: the binding signal came to 0.593 enrichment R.

Turning to B5, the binding signal was determined as 1.54 enrichment R.

Consider B6, for which the binding signal came to 1.19 enrichment R.

In turn, B7 came in with a binding signal of 1.46 enrichment R.

The molecule B8 gave a binding signal of 0.423 enrichment R.

With B9, the binding signal is 1.27 enrichment R.

The molecule B10 had a binding signal of 1.82 enrichment R.

B11 gave a binding signal of 1.17 enrichment R.

B12 had a binding signal of 1.07 enrichment R.

Consider B13, for which the binding signal amounted to 1.16 enrichment R.

The molecule B14 displayed a binding signal of 1.96 enrichment R.
